# In all, about 310,000 compounds went through this assay and about 2,200 (0.71%) showed an effect of 50% or more. Effects have a minus sign here. Some of the results follow.
# Biological target: human ether-à-go-go-related gene (hERG) potassium channel (human, UniProt Q12809)
# Experiment: primary screen, population patch clamp on CHO cells stably expressing hERG
# Sequence of human ether-à-go-go-related gene (hERG) potassium channel (Q12809 whole entry, looked up): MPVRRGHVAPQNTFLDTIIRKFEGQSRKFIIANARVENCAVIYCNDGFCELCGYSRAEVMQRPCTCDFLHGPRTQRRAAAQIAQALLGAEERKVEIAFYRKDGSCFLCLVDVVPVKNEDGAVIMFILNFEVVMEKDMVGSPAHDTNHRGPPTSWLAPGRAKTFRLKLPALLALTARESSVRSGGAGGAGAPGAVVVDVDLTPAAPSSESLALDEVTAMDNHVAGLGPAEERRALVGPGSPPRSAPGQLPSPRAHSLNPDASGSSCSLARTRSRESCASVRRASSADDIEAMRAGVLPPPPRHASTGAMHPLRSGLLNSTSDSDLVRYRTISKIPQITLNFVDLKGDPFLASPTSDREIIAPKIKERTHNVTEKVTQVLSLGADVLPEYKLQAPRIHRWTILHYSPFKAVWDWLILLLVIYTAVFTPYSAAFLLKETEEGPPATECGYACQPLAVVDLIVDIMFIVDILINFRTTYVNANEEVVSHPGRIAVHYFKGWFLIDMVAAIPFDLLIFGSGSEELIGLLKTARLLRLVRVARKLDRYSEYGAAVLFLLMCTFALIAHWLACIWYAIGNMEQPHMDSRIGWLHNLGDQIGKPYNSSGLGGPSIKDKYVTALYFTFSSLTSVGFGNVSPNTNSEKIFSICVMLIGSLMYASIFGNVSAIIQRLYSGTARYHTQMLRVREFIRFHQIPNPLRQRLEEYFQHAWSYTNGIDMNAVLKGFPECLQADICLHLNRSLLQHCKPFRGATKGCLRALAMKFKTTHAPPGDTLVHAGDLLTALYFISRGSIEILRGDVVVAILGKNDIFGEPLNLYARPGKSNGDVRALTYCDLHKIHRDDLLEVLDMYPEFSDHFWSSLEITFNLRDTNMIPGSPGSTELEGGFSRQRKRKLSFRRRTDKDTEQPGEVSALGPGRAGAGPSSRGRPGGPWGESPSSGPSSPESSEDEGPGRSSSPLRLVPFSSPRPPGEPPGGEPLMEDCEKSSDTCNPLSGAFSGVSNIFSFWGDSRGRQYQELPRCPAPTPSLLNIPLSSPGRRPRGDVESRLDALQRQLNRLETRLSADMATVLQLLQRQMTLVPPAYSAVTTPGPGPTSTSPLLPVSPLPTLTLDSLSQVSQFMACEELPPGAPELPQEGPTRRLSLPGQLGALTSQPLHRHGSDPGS
row,Structure (SMILES),"hERG current change (%, negative = inhibition) at 1uM [%]"
1,O=C(c1c(O)c2ccccc2oc1=O)C1CCCCC1,13.2
2,O=C(CCC(=O)OCc1ccc(Cl)cc1)Nc1cccc([N+](=O)[O-])c1,3.12
3,C=C(C)CSc1nnc(-c2ccc(OC)c(OC)c2)n1N,9.03
4,COc1ccc(Cl)cc1-c1nc(SCC(=O)NC(C)C)n[nH]1,5.97
5,COc1ccccc1CN(C)C(=O)c1cnc(C)cn1,18.2
6,CC(=O)N1CCN(Cc2nc3cc(NC(=O)Nc4ccccc4)ccc3n2C)CC1,15.5
7,Br.C=CCN1C(c2ccccc2)=CS/C1=C(/C#N)c1nnc(N2CCOCC2)n1-c1ccccc1,13
8,CCCCCCOc1ccc(C(=O)O)cc1C#N,12.2
9,Cc1cc(C(=O)OCC(=O)N2CC(C)OC(C)C2)c2ccccc2n1 (centres unmarked),-15.2
10,O=C(/C=C1\NC2(CCCC2)Cc2ccccc21)C(=O)N/N=C/c1ccccc1O,17.3
11,CCC(C)[C@H](NC(=O)OC(C)(C)C)C(=O)N/N=C/c1ccc2cc(OC)ccc2n1 (some centres unmarked),7.31
12,CC1(C(=O)NC2CCCC2)CCC(=O)N1Cc1cccs1 (centres unmarked),4.68
13,CC(C)CC(=O)NC(=S)Nc1ccc(S(=O)(=O)N2CCCC2)cc1,15.8
14,O=C(CSc1nc(=O)n2ccccc2n1)NCc1ccccc1Cl,16.3
15,CC(C)c1nnc(NC(=O)C2CCN(C(=O)c3ccco3)CC2)s1,11.8
16,Cc1cc(C(=O)CSc2cccc[n+]2[O-])c(C)n1-c1ccc(Br)cc1,9.28
17,Cn1cnnc1SCC(=O)NNC(=O)COc1ccc(Br)cc1,10.1
18,C=CCn1c(CNC(=O)c2ccco2)nnc1SCC(=O)c1ccccc1,9.27
19,COc1ccc(C(CN(C)C)C2(O)CCCCC2)cc1.Cl (centres unmarked),3.87
20,Cc1cccc(C2=NNC(=O)C(c3ccc(Cl)cc3)C2)c1 (centres unmarked),7.5
21,c1ccc(C2=Nn3c(nnc3-c3cccs3)SC2)cc1,13.7
22,CN(C(=S)NC(=O)c1ccccc1)c1c(N)n(Cc2ccccc2)c(=O)[nH]c1=O,4.5
23,Cc1ccccc1CSc1ncc(C#N)c(N)n1,2.17
24,Cc1ccc(C)c(N2C(=O)CC(Cc3ccc(Cl)cc3)C2=O)c1 (centres unmarked),9.48
25,Cc1nn(CC(=O)NC(C)C)c(C)c1[N+](=O)[O-],8.06
26,CN(C)c1cccc(N=C2C=C(N3CCOCC3)CC(C)(C)C2)c1,-24.1
